Laboratory results reported in PubChem BioAssay AID686979 (National Center for Advancing Translational Sciences (NCATS), 2013).
The campaign covered roughly 420,000 compounds. About 50,000 (12%) were called active. The shares of active, inactive and inconclusive entries below differ from those in the screen. Calls follow the shape of the dose curve; as a rule, active = well fitted inhibition curve with a large enough effect; inconclusive = small, poorly fitted or top-dose-only effect; inactive = flat fitted curve, though single readings scatter. No potency is given beside an inconclusive call; the fits are too rough.

Assay: qHTS for Inhibitors of human tyrosyl-DNA phosphodiesterase 1 (TDP1): qHTS in cells in presence of CPT; also: nearly all actives have a fitted effect of over 55% in size
Conditions: chicken DT40 Tdp1-/-;hTDP1 cells + 20 nM CPT, ATP luminescence, 48 h; activity change, negative = growth inhibition: at 46.2 µM (top of the series)
Summary of the method: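 Chicken DT40 Tdp1-/- cells stably complemented with human TDP1 were seeded at 400 cells/well in medium containing 20 nM camptothecin, exposed to pin-transferred compounds, and grown at 37 °C for at least 48 hr. Viability was read as ATP luminescence.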
% is scaled to controls: 0 for no effect and ±100 for the full control effect; potency is read from the fitted curve at half-maximal effect; tags tell the direction and shape of the fitted curve.

SMILES	Potency	activity change, negative = growth inhibition
Cc1cc(OCC(=O)N2CCc3ccccc3C2)c(C)cc1Br	inconclusive [inhibitor, single point]	–
COc1ccc(NC(=O)N(CCc2ccccc2)Cc2cc3c(C)cc(C)cc3[nH]c2=O)cc1	inconclusive [inhibitor, single point]	–
Cc1ccc(C)c(CNC(=O)c2cc3ccccn3n2)c1	inconclusive [inhibitor, partial curve]	–
O=C(O)c1ccc(/C=C2\COc3ccccc3C2=O)cc1	inconclusive [inhibitor, single point]	–
CCN1C(=O)C(Cc2nc3ccccc3c(=O)n2-c2ccc(OC)cc2)c2ccccc21 (stereo not drawn)	inconclusive [inhibitor, single point]	–
O=C(c1cc(-c2ccncc2)nc2ccccc12)N1CCN(S(=O)(=O)/C=C/c2ccccc2)CC1	inconclusive [inhibitor, single point]	–
COc1ccc(N2CC(NC(=O)COc3ccc4ccccc4c3)CC2=O)cc1OC (stereo not drawn)	–	inactive: -27%
COc1ccccc1CNC(=O)c1cnn2c(C(F)F)cc(C)nc12	inconclusive [inhibitor, partial curve]	–
CC(C)(C)NC(=O)CN(C(=O)Cn1nnc(-c2ccc(Cl)cc2)n1)C1CCN(Cc2ccccc2)CC1	inconclusive [inhibitor, single point]	–
CC(OC(=O)C1CCN(c2ccc(C(F)(F)F)cn2)CC1)C(=O)Nc1ccc(S(N)(=O)=O)cc1 (stereo not drawn)	inconclusive [inhibitor, single point]	–
COc1ccc(S(=O)(=O)N2CC(O)CC2C(=O)OCc2nc3sc(C)c(C)c3c(=O)[nH]2)cc1 (stereo not drawn)	–	inactive: -14.3%
Cc1ccc(Nc2nc3c(s2)CCC3)c(C)c1	inconclusive [inhibitor, single point]	–
COc1ccc(NC(=O)CN2CCN(C(C)=O)CC2)cc1S(=O)(=O)N1CCOCC1	–	inactive: 1.19%
Cc1noc(C)c1-c1ccc(C(=O)NCC2CC2)c2occc12	inconclusive [inhibitor, single point]	–
c1ccc2c(c1)OCCOCCOCCOCCOc1ccccc1OCCOCCOCCO2	active: 14.6 µM	–
COC(=O)c1c(NC(=O)c2nc3ccccc3s2)sc2c1CC(C)(C)NC2(C)C	active: 23.1 µM	–
C/C(=N\NC(=O)Cc1ccc(Cl)cc1)c1ccccc1O	inconclusive [inhibitor, single point]	–
CCOC(=O)N1CCc2c(sc3c2C(=O)NC(c2ccccc2F)N3)C1 (stereo not drawn)	active: 20.6 µM	–
COc1ccccc1CNc1nccn(-c2ccccc2)c1=O	inconclusive [inhibitor, partial curve]	–
CN(C)c1ncc2ncc(=O)n(Cc3ccc(F)cc3)c2n1	active: 10.3 µM	–
Cc1ccc2[nH]c(SCC(=O)N3CCOCC3)nc2c1C	–	inactive: -11.6%
CSc1nnc(C)c(=O)n1COC(=O)COc1ccc(Cl)cc1	–	inconclusive: -30.9% [inhibitor]
NCC(c1ccc(Cl)cc1Cl)c1c[nH]c2ccccc12 (stereo not drawn)	active: 18.4 µM	–

SMILES	Potency	activity change, negative = growth inhibition
CCN(C(=O)Cn1c(=O)oc2cc(S(=O)(=O)N3CCCC3)ccc21)c1ccc(OC)cc1	inconclusive [inhibitor, single point]	–
COC(=O)c1ccc(C23CC4(C2)[C@H](CN(Cc2cccnc2)[C@@H]4c2ccccc2)C3c2ccc(Cl)nc2)cc1 (stereo partly drawn)	inconclusive [inhibitor, single point]	–
CC(=O)Nc1ccc(OCCCNC(=O)c2c(-c3ccccc3)noc2C)cc1	inconclusive [inhibitor, single point]	–
C#CC[N+](C)(C)CCCCCCCC	inconclusive [inhibitor, single point]	–
O=C1C(c2ccnc3ccccc23)=C(O)c2ccccc21	active: 13 µM	–
O=C1C(=C(O)c2ccccc2)C(=O)c2ccccc21	inconclusive [inhibitor, single point]	–
Cc1ccc(Cl)cc1NC(=S)N/N=C/c1cccc2ccccc12	active: 2.91 µM	–
CCCCC1CCC(C(=O)N2CC(=O)Nc3ccc(Cl)cc3C2c2ccc(F)cc2)CC1 (stereo not drawn)	inconclusive [inhibitor, single point]	–
COc1ccc(NC(=O)COC(=O)C2C3CC4OC(=O)C2C4C3)cc1 (stereo not drawn)	–	inactive: 0.594%
CC1=C(C(=O)N(C(C)C)C(C)C)CC(CC(=O)NC2CCCC2)C(=O)N1Cc1ccccc1 (stereo not drawn)	–	inactive: -14.6%
CC(C)C(=O)NC(NC(=S)Nc1cccc2cccnc12)C(Cl)(Cl)Cl (stereo not drawn)	active: 8.2 µM	–
CCN(CC)c1ccc(-c2nc(-c3ccco3)no2)cc1[N+](=O)[O-]	inconclusive [inhibitor, single point]	–
Cc1cccc(C)c1NC(=S)N/N=C/c1c(Cl)cccc1Cl	inconclusive [inhibitor, partial curve]	–
COC(=O)N1CCC[C@@]2(CCN(c3ccncc3)C2)C1	–	inactive: -21.9%
COc1ccc(S(=O)(=O)N2CCCCC2c2cc(C(=O)NCc3ccc(F)cc3)no2)cc1 (stereo not drawn)	inconclusive [inhibitor, single point]	–
CSc1ccccc1NC(=O)CN(C)C(=O)c1ccc(NC(=O)c2cccs2)cc1	inconclusive [inhibitor, single point]	–
Nc1nnc(CCN2C(=O)CSC2=O)s1	inconclusive [inhibitor, single point]	–
Cn1cc(S(=O)(=O)N2CCCCC2)cc1C(=O)Nc1cccc(C#N)c1	inconclusive [inhibitor, single point]	–
COc1ccc(/C=N/NC(=O)c2ccc[nH]2)cc1	–	inactive: -14.2%
CC(=O)c1ccc(NC(=O)C2Cc3ccccc3CN2C(=O)c2ccccc2)cc1 (stereo not drawn)	inconclusive [inhibitor, single point]	–
Cc1ccc(CCNC(=O)c2ccc3c(=O)n(-c4ccccc4)c(=O)[nH]c3c2)cc1	–	inactive: -0.53%
CCOC(=O)c1cccc2c1N[C@@H](c1ccc(F)cc1)[C@H]1CC=C[C@@H]21	inconclusive [inhibitor, single point]	–
Cc1ccc(C(=O)OCC(=O)NNC(=O)COc2ccc(Cl)cc2)c(O)c1	–	inactive: -10.5%

SMILES	Potency	activity change, negative = growth inhibition
CCN1C(=O)[C@H]2[C@@H](c3ccc(C(F)(F)F)cc3)N[C@]3(CCCN(Cc4ccc(F)cc4)C3=O)[C@H]2C1=O	active: 20.6 µM	–
COc1cc(C(=O)NCC(c2ccco2)N2CCc3ccccc3C2)cc(OC)c1OC (stereo not drawn)	inconclusive [inhibitor, single point]	–
CCCC[C@@H]1C=C(C(=O)O)[C@H](c2ccc(Cl)c(Cl)c2)N1S(=O)(=O)c1ccc(C)cc1	–	inactive: -1.18%
O=C(C1CCC(CNc2nc(=S)[nH]c3ccccc23)CC1)N1CCN(c2ccccn2)CC1 (stereo not drawn)	active: 18.4 µM	–
COc1ccc(CCNC(=O)c2cccc(C(=O)NCCc3ccc(OC)cc3)n2)cc1	inconclusive [inhibitor, single point]	–
CCN1CCc2c(sc(NC(=O)c3ccc(S(=O)(=O)N4CCOCC4)cc3)c2C(=O)OC)C1	active: 8.2 µM	–
COc1cc2nc(N3CCCN(C)CC3)nc(NC3CC3)c2cc1OC	active: 7.94 µM	–
Cn1cnnc1SCC(=O)Nc1ccc(N2CCCCC2)cc1	–	inactive: 5.75%
O=C(CC(c1ccccc1)c1ccccc1)Nc1ccc2c(c1)OCCO2	inconclusive [inhibitor, partial curve]	–
Cc1ccc(S(=O)(=O)N2C[C@H]3N(C(=O)OC(C)C)N(C(=O)OC(C)C)C[C@H](OC(=O)NC4CCCC4)[C@@]3(O)C2)cc1	inconclusive [inhibitor, single point]	–
COc1cccc(Sc2cc(N3CCOCC3)nc(-c3ccccc3)n2)c1	inconclusive [inhibitor, partial curve, poor fit]	–
Cc1[nH]c2ccccc2c1/C=N/NC(=O)c1cccc(F)c1	–	inactive: -7.31%
CCOc1ccc(NC(=O)c2ccc(F)c(S(=O)(=O)N3CCN(c4ccccn4)CC3)c2)cc1	inconclusive [inhibitor, single point]	–
CCOc1ccc2[nH]c(=O)c(CN(Cc3cccs3)C(CC)c3nnnn3C(C)(C)CC)cc2c1 (stereo not drawn)	active: 20.6 µM	–
O=C1Nc2cccc3c2N(CCC3)C2=C1CCC2	inconclusive [inhibitor, single point]	–
CC(/C=C/c1ccc2c(c1)OCO2)=N/NC(=O)CNc1ccc(C)cc1	inconclusive [inhibitor, single point]	–
COc1ccc(C(=O)NC2(C(F)(F)F)NC(=O)N(CCCc3ccccc3)C2=O)c(OC)c1OC (stereo not drawn)	inconclusive [inhibitor, single point]	–
CN1CCN(C(=O)CCn2c(=O)c3cccn3c3cccnc32)CC1	–	inactive: 1.7%
Cc1ccc(CNC(=O)Cn2c(=O)n(Cc3ccc(F)cc3)c(=O)c3sc4ccccc4c32)cc1	inconclusive [inhibitor, full curve, poor fit]	–
Cc1ccc(S(=O)(=O)N2C[C@@H]3CCCC[C@@H]3[C@@H](C)[C@H]2c2cn(Cc3ccccc3)c3ccccc23)cc1	active: 6.51 µM	–
COc1ccc(Oc2c(Cl)cnn(-c3ccccc3)c2=O)cc1	inconclusive [inhibitor, single point]	–
CC1(C)CC2(CC(c3ccccc3F)c3ccc(O)c(O)c3O2)NC(=S)N1 (stereo not drawn)	inconclusive [inhibitor, single point]	–
